Sequences and labels used below:
T1: HDAC8 (human (endogenous in HeLa S3)) (UniProt Q9BY41)
T1 sequence: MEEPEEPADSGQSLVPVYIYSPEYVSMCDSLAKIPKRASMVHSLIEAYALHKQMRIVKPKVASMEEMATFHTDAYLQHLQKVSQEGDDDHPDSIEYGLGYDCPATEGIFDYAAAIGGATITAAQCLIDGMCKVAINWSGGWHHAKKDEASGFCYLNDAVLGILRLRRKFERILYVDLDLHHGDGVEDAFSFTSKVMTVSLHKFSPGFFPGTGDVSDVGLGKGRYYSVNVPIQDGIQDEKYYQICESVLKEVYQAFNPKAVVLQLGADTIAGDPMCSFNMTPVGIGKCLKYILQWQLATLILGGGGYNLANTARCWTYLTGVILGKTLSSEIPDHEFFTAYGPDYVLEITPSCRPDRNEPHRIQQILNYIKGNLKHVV

Chains of the proteins cited; added tags and fusions are not shown.
UniProt O15379: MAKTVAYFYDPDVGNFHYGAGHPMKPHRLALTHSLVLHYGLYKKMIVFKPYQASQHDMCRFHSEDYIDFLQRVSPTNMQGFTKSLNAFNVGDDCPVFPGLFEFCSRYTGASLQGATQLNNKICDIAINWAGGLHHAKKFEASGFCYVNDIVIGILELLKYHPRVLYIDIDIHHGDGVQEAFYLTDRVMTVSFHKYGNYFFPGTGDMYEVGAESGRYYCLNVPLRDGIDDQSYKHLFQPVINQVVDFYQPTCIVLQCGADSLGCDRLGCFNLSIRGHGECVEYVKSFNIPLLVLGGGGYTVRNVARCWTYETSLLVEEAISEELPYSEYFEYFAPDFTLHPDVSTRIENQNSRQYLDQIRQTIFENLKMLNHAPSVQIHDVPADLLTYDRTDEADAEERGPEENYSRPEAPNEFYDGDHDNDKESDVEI
UniProt Q02539: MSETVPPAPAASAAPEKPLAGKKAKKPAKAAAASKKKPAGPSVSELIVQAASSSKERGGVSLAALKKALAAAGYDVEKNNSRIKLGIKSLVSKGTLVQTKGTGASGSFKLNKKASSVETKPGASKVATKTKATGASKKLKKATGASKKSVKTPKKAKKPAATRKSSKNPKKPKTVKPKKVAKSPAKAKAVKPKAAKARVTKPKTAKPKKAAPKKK
UniProt P16401: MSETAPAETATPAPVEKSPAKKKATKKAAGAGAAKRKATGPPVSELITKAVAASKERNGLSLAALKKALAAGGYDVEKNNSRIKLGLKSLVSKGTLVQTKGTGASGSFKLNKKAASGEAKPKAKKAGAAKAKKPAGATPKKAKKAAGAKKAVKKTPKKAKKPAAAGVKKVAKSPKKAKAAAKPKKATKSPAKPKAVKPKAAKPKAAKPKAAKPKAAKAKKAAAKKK
UniProt P16402: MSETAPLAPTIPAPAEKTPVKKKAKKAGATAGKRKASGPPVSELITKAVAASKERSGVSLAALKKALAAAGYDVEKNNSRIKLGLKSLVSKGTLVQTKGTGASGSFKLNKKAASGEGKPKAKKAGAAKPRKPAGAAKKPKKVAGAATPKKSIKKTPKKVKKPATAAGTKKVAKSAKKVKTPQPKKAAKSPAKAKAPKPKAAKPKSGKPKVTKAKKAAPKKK
UniProt P16403: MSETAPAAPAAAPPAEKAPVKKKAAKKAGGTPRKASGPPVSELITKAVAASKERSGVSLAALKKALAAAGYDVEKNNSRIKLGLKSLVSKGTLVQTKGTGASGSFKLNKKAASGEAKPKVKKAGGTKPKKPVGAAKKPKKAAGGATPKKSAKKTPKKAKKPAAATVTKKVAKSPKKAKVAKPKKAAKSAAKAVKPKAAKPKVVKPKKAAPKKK

B1: HDAC8 (enzyme, UniProt Q9BY41 1-377)
chain: T1 sequence

These are yes or no findings as the source states them, for the method shown. In cells and extracts the contact can be indirect. Some entries that bind do so weakly or less than the wild type.

Drawing on publication PMC4751364, “Mitotic Activation of a Novel Histone Deacetylase 3-Linker Histone H1.3 Protein Complex by Protein Kinase CK2*” (The Journal of Biological Chemistry, 2015), this text covers binding for six molecules.

The target in one assay is Histone deacetylase 3 (human (endogenous in HeLa S3 and MCF-7)) (UniProt O15379). Put plainly: co-IP; endogenous proteins of HeLa S3 whole cell extracts (0.5% Nonidet P-40 in PBS), unsynchronised or synchronised to S, early G2, late G2 phase or mitosis (double thymidine block, nocodazole); antibody 1-2 ug/ml overnight at 4 C, protein A/G- or L-agarose, washed three times with radioimmune precipitation assay buffer; Western blot; non-immune IgG/IgM as control.
Take “linker histone subtype H1.1 (from UniProt Q02539 1-215)”: the binding result is given as “no binding”. With “linker histone subtype H1.5 (from UniProt P16401 1-226)”, the binding entry was “no binding”. As to “linker histone subtype H1.3 (from UniProt P16402 1-221)”, the binding entry is given as “binds”. “linker histone subtype H1.2 (from UniProt P16403 1-213)”: the binding entry was “no binding”. Turning to B1, the binding entry was “no binding”.

Another assay deals with T1, HDAC8 (human (endogenous in HeLa S3)). Described as above.
As to “Histone deacetylase 3 (from UniProt O15379 1-428) (enzyme)”, the binding entry was “no binding”.
